Source: PMC7592119 (Science (New York, N.Y.), 2019)
One block for each binder: values may come before it.

Target: CDK4-CycD1 dimer (CDK4 T172E) of the activity assays (human, UniProt P11802 1-303; P24385, T172E)
Test: reconstituted recombinant complexes used as enzymes

UniProt P11802, sequence (P11802 whole entry T172E, chain 1 of 2): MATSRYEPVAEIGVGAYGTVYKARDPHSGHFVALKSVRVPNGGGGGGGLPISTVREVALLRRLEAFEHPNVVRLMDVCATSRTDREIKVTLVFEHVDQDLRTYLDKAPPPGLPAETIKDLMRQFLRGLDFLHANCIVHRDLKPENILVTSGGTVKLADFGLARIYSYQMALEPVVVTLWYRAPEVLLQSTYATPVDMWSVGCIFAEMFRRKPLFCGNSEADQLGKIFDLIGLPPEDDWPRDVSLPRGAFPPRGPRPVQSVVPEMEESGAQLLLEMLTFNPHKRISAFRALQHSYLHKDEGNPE
UniProt P11802, sequence (P24385 whole entry, chain 2 of 2, further chain): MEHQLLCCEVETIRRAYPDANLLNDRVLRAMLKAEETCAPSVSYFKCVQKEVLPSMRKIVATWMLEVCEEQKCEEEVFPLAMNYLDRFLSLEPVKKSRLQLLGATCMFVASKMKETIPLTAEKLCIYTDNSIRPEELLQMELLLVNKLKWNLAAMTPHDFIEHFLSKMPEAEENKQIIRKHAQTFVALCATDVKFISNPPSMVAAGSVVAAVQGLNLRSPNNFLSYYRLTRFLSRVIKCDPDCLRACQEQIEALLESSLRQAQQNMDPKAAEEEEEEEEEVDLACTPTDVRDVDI

- binding result: binds
B1: p27 kinase inhibitory domain ([…]) with a phosphomimetic at Y74 (domain or fragment)
chain: not shown

- binding result: binds
B2: p27 kinase-inhibitory domain (p27^KID; […]) (domain or fragment)
chain: not shown
